Measurements reported in the supplement of paper PMC9151546.
Repeats are few or missing, and single values can be far off.

Legend:
CHO-K1 [1] = assay: relative survival (nuclei to bead ratio vs DMSO control) (% of vehicle control); higher = more surviving cells
Experimental: (§1)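 Flow-cytometric in vitro micronucleus assay (Litron MicroFlow) in CHO-K1 cells in 96-well plates, 19 concentrations (4.5-200 µM, n=1 per concentration). Without S9, cells were exposed for 24 h and sampled at 48 h. With Aroclor 1254-induced rat liver S9, cells were exposed for 3-4 h and sampled at 27-28 h. Read-outs are %MN and %hypodiploid nuclei relative to nucleated events, and relative survival as the nuclei-to-bead ratio versus the 1% DMSO vehicle control (x100).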

CHO-K1 [2] = assay: micronucleus frequency (% of nucleated events); higher = more micronuclei (genotoxic)
CHO-K1 [3] = assay: hypodiploid nuclei frequency (% of nucleated events); higher = more hypodiploid events (aneugenic)
Experimental: as §1
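For hypodiploid nuclei frequency (% of nucleated events) in this document: hypodiploid nuclei gated on a flow cytometer with 488 nm excitation after SYTOX Green staining, cultures at 37 °C, positive controls vinblastine without S9 and cyclophosphamide with S9.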
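For micronucleus frequency (% of nucleated events) in this document: cells lysed with nuclei stained by SYTOX Green, then micronucleus-gated events counted against nucleated events by flow cytometry with 488 nm excitation.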
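For relative survival (nuclei to bead ratio vs DMSO control) in this document: Lysed-cell nuclei stained with SYTOX Green and counted against counting beads by flow cytometry at 488 nm excitation, with vinblastine (no S9) and cyclophosphamide (plus S9) as positive controls.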

C/C=C\c1ccc(O)c(OC)c1 [Isoeugenol]
Conditions	hypodiploid nuclei frequency, CHO-K1 [3] [%]	micronucleus frequency, CHO-K1 [2] [%]	relative survival, CHO-K1 [1]
concentration: 4.5 (µM), S9 metabolic activation: with S9, exposure time: 3-4 hours	0.2	1.42	119
concentration: 4.5 (µM), S9 metabolic activation: without S9, exposure time: 24 hours	0.68	1.94	142
concentration: 5.63 (µM), S9 metabolic activation: with S9, exposure time: 3-4 hours	0.14	1.9	115
concentration: 5.63 (µM), S9 metabolic activation: without S9, exposure time: 24 hours	0.8	1.64	154
concentration: 7.04 (µM), S9 metabolic activation: with S9, exposure time: 3-4 hours	0.3	1.44	139
concentration: 7.04 (µM), S9 metabolic activation: without S9, exposure time: 24 hours	0.58	2.14	117
concentration: 8.8 (µM), S9 metabolic activation: with S9, exposure time: 3-4 hours	0.28	1.1	140
concentration: 8.8 (µM), S9 metabolic activation: without S9, exposure time: 24 hours	0.5	1.48	166
concentration: 11 (µM), S9 metabolic activation: with S9, exposure time: 3-4 hours	0.12	0.96	132
concentration: 11 (µM), S9 metabolic activation: without S9, exposure time: 24 hours	0.64	1.62	148
concentration: 13.7 (µM), S9 metabolic activation: with S9, exposure time: 3-4 hours	0.28	1.24	146
concentration: 13.7 (µM), S9 metabolic activation: without S9, exposure time: 24 hours	0.7	2.14	118
concentration: 17.2 (µM), S9 metabolic activation: with S9, exposure time: 3-4 hours	0.12	1.32	133
concentration: 17.2 (µM), S9 metabolic activation: without S9, exposure time: 24 hours	0.5	1.36	145
concentration: 21.5 (µM), S9 metabolic activation: with S9, exposure time: 3-4 hours	0.18	1.2	134
concentration: 21.5 (µM), S9 metabolic activation: without S9, exposure time: 24 hours	0.84	1.94	120
concentration: 26.8 (µM), S9 metabolic activation: with S9, exposure time: 3-4 hours	0.32	1.02	128
concentration: 26.8 (µM), S9 metabolic activation: without S9, exposure time: 24 hours	0.68	1.36	137
concentration: 33.6 (µM), S9 metabolic activation: with S9, exposure time: 3-4 hours	0.22	1.2	154
concentration: 33.6 (µM), S9 metabolic activation: without S9, exposure time: 24 hours	0.86	1.58	156
concentration: 41.9 (µM), S9 metabolic activation: with S9, exposure time: 3-4 hours	0.1	1.1	120
concentration: 41.9 (µM), S9 metabolic activation: without S9, exposure time: 24 hours	0.7	1.56	118
concentration: 52.4 (µM), S9 metabolic activation: with S9, exposure time: 3-4 hours	0.16	0.76	118
concentration: 52.4 (µM), S9 metabolic activation: without S9, exposure time: 24 hours	0.8	1.28	146
concentration: 65.5 (µM), S9 metabolic activation: with S9, exposure time: 3-4 hours	0.12	0.98	119
concentration: 65.5 (µM), S9 metabolic activation: without S9, exposure time: 24 hours	0.96	1.68	133
concentration: 81.9 (µM), S9 metabolic activation: with S9, exposure time: 3-4 hours	0.22	1.16	122
concentration: 81.9 (µM), S9 metabolic activation: without S9, exposure time: 24 hours	1.12	1.4	108
concentration: 102 (µM), S9 metabolic activation: with S9, exposure time: 3-4 hours	0.32	0.98	130
concentration: 102 (µM), S9 metabolic activation: without S9, exposure time: 24 hours	1.18	1.68	102
concentration: 128 (µM), S9 metabolic activation: with S9, exposure time: 3-4 hours	0.18	1.1	120
concentration: 128 (µM), S9 metabolic activation: without S9, exposure time: 24 hours	1.56	2.26	86
concentration: 160 (µM), S9 metabolic activation: with S9, exposure time: 3-4 hours	0.14	1.18	111
concentration: 160 (µM), S9 metabolic activation: without S9, exposure time: 24 hours	1.24	2.56	110
concentration: 200 (µM), S9 metabolic activation: with S9, exposure time: 3-4 hours	0.2	1.16	90.5
concentration: 200 (µM), S9 metabolic activation: without S9, exposure time: 24 hours	1.44	2.48	69.9
